Test results as given in the supplement of paper PMC4967469.
pIC50: −log10 of the molar value. The IC50 comes from the fitted curve, where viability falls to half of the control; a limit (>, <) means that the fit lies beyond the doses tested. AUC sums up the same curve from the lowest dose to the 256-fold higher top dose; it is 1 without any effect and falls as sensitivity rises. The top dose, if marked as inferred, was calculated from the reported fits. For part of these data: An entry number marks a drug with two screens in the source, which often give different values.

Legend:
Experiment in all cases: Viability of human cancer cell lines after 72 h of drug (GDSC screen)
MLN4924 = compound: NS(=O)(=O)OC[C@@H]1C[C@@H](n2ccc3c(N[C@H]4CCc5ccccc54)ncnc32)C[C@@H]1O [MLN4924]; conditions: top dose 1 µM; top dose inferred
Method: (§1)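 Human cancer cell lines in 384-well plates, medium with 10% serum, drug for 72 h over a 256-fold dose range (nine 2-fold or five 4-fold steps up to the top dose). Adherent lines were fixed and stained with the nucleic acid dye Syto60, suspension lines read with resazurin; signal relative to control wells, capped at 0 and 100%. One two-parameter sigmoid per drug and line, fitted in a mixed model over all curves with the slope shared within a line.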

BMN-673 = compound: Cn1ncnc1[C@H]1c2n[nH]c(=O)c3cc(F)cc(c23)N[C@@H]1c1ccc(F)cc1 [BMN-673]; conditions: top dose 10 µM; top dose inferred
Method: as §1

AZD6482 = compound: Cc1cc([C@@H](C)Nc2ccccc2C(=O)O)c2nc(N3CCOCC3)cc(=O)n2c1 [AZD6482]
Method: as §1

[1] = top dose 5 µM, screen: GDSC drug entry 1066, top dose inferred
[2] = top dose 5.12 µM, screen: GDSC drug entry 156

Row | Cell Line | AUC (MLN4924) | pIC50 (MLN4924) | AUC (BMN-673) | pIC50 (BMN-673) | AUC (AZD6482; [1]) | pIC50 (AZD6482; [1]) | AUC (AZD6482; [2]) | pIC50 (AZD6482; [2])
1 | SW900 (lung squamous cell carcinoma, adherent) | 0.878 | < 6.00 | 0.913 | < 5.00 | 0.922 | < 5.30 | 0.912 | < 5.29
2 | SW954 (urogenital system, adherent) | 0.717 | 6.59 | 0.528 | 6.13 | 0.974 | < 5.30 | 0.828 | 5.49
3 | SW962 (urogenital system, adherent) | 0.838 | 6.03 | 0.763 | 5.35 | 0.65 | 6.04 | 0.938 | < 5.29
4 | SW1088 (glioma, adherent) | 0.965 | < 6.00 | 0.932 | < 5.00 | 0.735 | 5.74 | 0.712 | 5.81
5 | SW1116 (large intestine, adherent) | 0.984 | < 6.00 | 0.977 | < 5.00 | 0.954 | < 5.30 | – | –
6 | SW1417 (large intestine, adherent) | 0.972 | < 6.00 | 0.973 | < 5.00 | 0.93 | < 5.30 | 0.974 | < 5.29
7 | SW1463 (large intestine, adherent) | 0.963 | < 6.00 | 0.955 | < 5.00 | 0.978 | < 5.30 | 0.953 | < 5.29
8 | SW1990 (pancreas, adherent) | 0.773 | 6.34 | 0.873 | < 5.00 | 0.977 | < 5.30 | 0.983 | < 5.29
9 | Saos-2 (osteosarcoma, adherent) | 0.815 | 6.06 | 0.882 | < 5.00 | 0.923 | < 5.30 | 0.909 | < 5.29
10 | SiHa (cervix, adherent) | 0.714 | 6.55 | 0.906 | < 5.00 | 0.986 | < 5.30 | 0.983 | < 5.29
11 | T98G (glioma, adherent) | 0.887 | 6.01 | 0.747 | 5.52 | 0.893 | < 5.30 | 0.844 | 5.49
12 | T-T (oesophagus, adherent) | 0.515 | 7.16 | 0.899 | < 5.00 | 0.813 | 5.57 | 0.905 | < 5.29
13 | TC-YIK (cervix, suspension) | 0.923 | < 6.00 | 0.502 | 6.20 | 0.974 | < 5.30 | – | –
14 | TCCSUP (bladder, adherent) | 0.961 | < 6.00 | 0.911 | < 5.00 | 0.912 | < 5.30 | 0.833 | 5.40
15 | TE-6 (oesophagus, adherent) | 0.871 | < 6.00 | 0.984 | < 5.00 | 0.897 | < 5.30 | 0.929 | < 5.29
16 | TE-11 (oesophagus, adherent) | 0.851 | 6.18 | 0.822 | 5.29 | 0.924 | < 5.30 | 0.963 | < 5.29
17 | TE-15 (oesophagus, suspension) | 0.981 | < 6.00 | 0.983 | < 5.00 | 0.937 | < 5.30 | 0.814 | 5.49
18 | TGBC11TKB (stomach, adherent) | 0.943 | < 6.00 | 0.972 | < 5.00 | 0.992 | < 5.30 | 0.992 | < 5.29
19 | TGBC24TKB (biliary tract, adherent) | 0.979 | < 6.00 | 0.982 | < 5.00 | 0.91 | < 5.30 | 0.958 | < 5.29
20 | U-87-MG (glioma, adherent) | 0.814 | 6.18 | 0.714 | 5.55 | – | – | 0.901 | < 5.29
21 | U-118-MG (glioma, adherent) | 0.902 | < 6.00 | 0.902 | < 5.00 | 0.769 | 5.66 | 0.936 | < 5.29
22 | U-698-M (B-cell leukaemia, suspension) | 0.986 | < 6.00 | 0.986 | < 5.00 | 0.975 | < 5.30 | 0.983 | < 5.29
23 | UACC-257 (melanoma, adherent) | 0.942 | < 6.00 | 0.965 | < 5.00 | 0.911 | < 5.30 | 0.919 | < 5.29
24 | UM-UC-3 (bladder, adherent) | 0.575 | 7.00 | 0.723 | 5.59 | 0.883 | 5.32 | 0.882 | 5.31
25 | UMC-11 (lung carcinoid, adherent) | 0.958 | < 6.00 | 0.976 | < 5.00 | 0.989 | < 5.30 | 0.986 | < 5.29
26 | WM793B (melanoma, adherent) | 0.66 | 6.74 | 0.69 | 5.64 | 0.77 | 5.68 | 0.409 | 6.75
27 | WSU-NHL (lymphoid neoplasm, suspension) | 0.696 | 6.69 | 0.934 | < 5.00 | 0.64 | 6.14 | 0.945 | < 5.29
28 | YAPC (pancreas, adherent) | 0.867 | < 6.00 | 0.92 | < 5.00 | 0.977 | < 5.30 | 0.96 | < 5.29
29 | YKG-1 (glioma, adherent) | 0.821 | 6.23 | 0.72 | 5.58 | 0.9 | < 5.30 | 0.896 | < 5.29
30 | YT (lymphoid neoplasm, suspension) | 0.91 | < 6.00 | 0.992 | < 5.00 | 0.401 | 6.76 | 0.331 | 6.93
